{"source": "the supplement of paper PMC11417369", "note": "± gives the standard deviation of the averaged measurements. The list shows a part of the results."}
{"tested_on": "PfAP2-I AP2 domain 3 (GST-tagged)", "test": "gcPBM binding intensity (ln(normalized median fluorescence intensity)); higher = stronger DNA binding", "procedure,_shortened": "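GST-fused DNA-binding domains of P. falciparum, expressed in E. coli, were applied at about 25 μg on average for 1 h to an Agilent 4 × 180k array of primer-extended double-stranded 36-bp intergenic genomic probes and negative controls. Binding intensity is the highest Masliner-normalised natural-log median intensity across replicate spots of either probe orientation, measured with Alexa488 anti-GST antibody and a 488 nm scan.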"}
{"sequence": "ATATACTCATTAATAACACACAATATGATAACAAAT [CACACA_site5913]", "gcPBM binding intensity (ln)": "7.99 ± 0.59"}
{"sequence": "ACATACATATGTAAATGTACAAAATATCCATAGATT [XGTACX_site2782]", "gcPBM binding intensity (ln)": "7.54 ± 0.77"}
{"sequence": "AATATATTTCATTTTTGTACACACAACGTTGGAGGG [XGTACX_site6461]", "gcPBM binding intensity (ln)": "8.59 ± 0.47"}
{"sequence": "AGTGTTTTTTATAAAGTGCAATATAAAAACAAAATG", "gcPBM binding intensity (ln)": "11.3 ± 0.75"}
{"sequence": "ATGTTATATATGTATTGTACGTATTTTGTATATTAT [XGTACX_site6607]", "gcPBM binding intensity (ln)": "8.12 ± 0.23"}
{"sequence": "AATTTTTTTTTATTGTGTACTTATTTTTTTATATTT [XGTACX_site917]", "gcPBM binding intensity (ln)": "8.14 ± 0.4"}
{"sequence": "TTTTATTTCATTTGTTGTACTTTCAAAATATTATTA [XGTACX_site2192]", "gcPBM binding intensity (ln)": "8.09 ± 0.47"}
{"sequence": "AAGAATAAAGAATGGTGTACATGCATATAAAATATT [XGTACX_site5707]", "gcPBM binding intensity (ln)": "8.13 ± 0.77"}
{"sequence": "GTAATTTTGAGATGATGTACATATTTTTTCCTTGTC [XGTACX_site4103]", "gcPBM binding intensity (ln)": "7.81 ± 0.69"}
{"sequence": "GATAAATCATATATAACACACATATGAATATTACAA [CACACA_site1321]", "gcPBM binding intensity (ln)": "7.72 ± 0.52"}
{"sequence": "AAAAGAAACTTATTTACGCACACTTTATTGCATGTT [CACACA_site3887]", "gcPBM binding intensity (ln)": "9.18 ± 0.19"}
{"sequence": "TAAGATATATTTTTTTGTACACATAATAAAATAATA [XGTACX_site8938]", "gcPBM binding intensity (ln)": "7.59 ± 0.38"}
{"sequence": "ATAATGTAGAACTAGAGTACATAAAAAAATAAACAT [XGTACX_site5205]", "gcPBM binding intensity (ln)": "8.32 ± 0.57"}
{"sequence": "GCTACACAATTTTTTAGTACACACATATAAATATAT [XGTACX_site3131]", "gcPBM binding intensity (ln)": "8.4 ± 0.21"}
{"sequence": "TTTTTTTTTTTTTTTTTTTGTCTTATATATTACGGA [CACACA_negctrl_site322]", "gcPBM binding intensity (ln)": "8.04 ± 0.71"}
{"sequence": "TATATATTATCAAGTGGACACACGAAAAAAAGGAAA [CACACA_site3741]", "gcPBM binding intensity (ln)": "8.03 ± 0.6"}
{"sequence": "TAAAGATTGTTCAGTGCATGTTGGCCTGTAAATGGA [TGCATGCA_site315]", "gcPBM binding intensity (ln)": "8.47 ± 0.36"}
{"sequence": "TTTTTCATATTATACTTTTATATACATATATAAAAA [XGTACX_negctrl_site281]", "gcPBM binding intensity (ln)": "7.93 ± 0.64"}
{"sequence": "ATAAACTGAGTGGTTACACACAAAACCAATAACTTT [CACACA_site7601]", "gcPBM binding intensity (ln)": "7.62 ± 0.67"}
{"sequence": "ATATAGACACACACATGTACATATGCCAACGTGATA [XGTACX_site3828]", "gcPBM binding intensity (ln)": "7.94 ± 0.49"}
{"sequence": "ACTATATAATATAATATATTATAATATATTATATTA [GTGCAC_negctrl_site140]", "gcPBM binding intensity (ln)": "7.63 ± 0.32"}
{"sequence": "TTCTTAAAATATGAAAGTACATAGGCATTATATATT [XGTACX_site8400]", "gcPBM binding intensity (ln)": "7.73 ± 0.49"}
{"sequence": "TATGCAAGGAACCACACACACACACCGAAATGTATA [CACACA_site4573]", "gcPBM binding intensity (ln)": "7.79 ± 0.52"}
{"sequence": "TTTTTTATTAGTATCTGTACACATTGGTATTTGTAT [XGTACX_site6682]", "gcPBM binding intensity (ln)": "7.96 ± 0.52"}
{"sequence": "AATAAATAAATATATATATATATATAATATCATAAA [CACACA_negctrl_site337]", "gcPBM binding intensity (ln)": "7.73 ± 0.27"}
{"sequence": "TATATATATATATATTGTACTTATGTTTATATTCAT [XGTACX_site6258]", "gcPBM binding intensity (ln)": "9.34 ± 0.41"}
{"sequence": "TTCTTTAAAATATTATGTACACATTGCGAACAGTTT [XGTACX_site5418]", "gcPBM binding intensity (ln)": "7.87 ± 0.57"}
{"sequence": "AGTTTATTTATATACACACACATATAAATATTATAG [CACACA_site6522]", "gcPBM binding intensity (ln)": "7.74 ± 0.52"}
{"sequence": "ATATATATTTATGTATCACACACAAAAAAAAAAAAT [CACACA_site7973]", "gcPBM binding intensity (ln)": "7.69 ± 0.54"}
{"sequence": "TCAAGAATTATATAAACACACATACATACACCCATA [CACACA_site5126]", "gcPBM binding intensity (ln)": "8.1 ± 0.16"}
{"sequence": "ATATTGATGTATTGTTTTTTTTTTTTCTTTTTTTTT [CACACA_negctrl_site1238]", "gcPBM binding intensity (ln)": "7.47 ± 0.58"}
{"sequence": "CCATGCATACATTCTTGTACACATTTCTATTATGAG [XGTACX_site39]", "gcPBM binding intensity (ln)": "8.16 ± 0.68"}
{"sequence": "GAATTCAACAAAAAAAGTACTCTACATAAAATAATG [XGTACX_site175]", "gcPBM binding intensity (ln)": "7.83 ± 0.23"}
{"sequence": "TTATAAAAGGACTTCTGTACGAATTTTTTTTAATAA [XGTACX_site1411]", "gcPBM binding intensity (ln)": "7.41 ± 0.12"}
{"sequence": "GAACGAAACTTTCTTACACACATTGAAATTTTTTTC [CACACA_site1779]", "gcPBM binding intensity (ln)": "7.94 ± 0.42"}
{"sequence": "TACTCACAATGGGGTCTACAAAAAAAAAAAAATAAA [XGTACX_negctrl_site229]", "gcPBM binding intensity (ln)": "7.73 ± 0.042"}
{"sequence": "ATGATCATAAAACACACACACAAAAAAAAAAAAAAA [CACACA_site1805]", "gcPBM binding intensity (ln)": "8 ± 0.52"}
{"sequence": "ATTAATTTTATATATGCACACAAAATATGTTCATAT [CACACA_site9350]", "gcPBM binding intensity (ln)": "9.13 ± 0.099"}
{"sequence": "TTATAATAAACCTATACACACATAAATAAATAAATA [CACACA_site2581]", "gcPBM binding intensity (ln)": "7.83 ± 0.63"}
{"sequence": "TATGTATATATTTGTGCACACCAAAGTTTGATTTTA [CACACA_site1861]", "gcPBM binding intensity (ln)": "10.71 ± 0.014"}
{"sequence": "AATAATATTTATTTTTGTACATATGTGCATTATAAA [XGTACX_site3682]", "gcPBM binding intensity (ln)": "11 ± 0.98"}
{"sequence": "TTCTGGTGTAAATGCACACAGAAGAAGAAAAAAAAA [CACACA_site3685]", "gcPBM binding intensity (ln)": "9.81 ± 0.54"}
{"sequence": "TAATTTAATTTTCCAAGAAAAAAAAAAGAAAAAAGA [CACACA_negctrl_site1703]", "gcPBM binding intensity (ln)": "7.59 ± 0.4"}
{"sequence": "TAACATCCTAATGTCACACATGTTATAGGTTTAAAT [CACACA_site5649]", "gcPBM binding intensity (ln)": "7.45 ± 0.54"}
